The supplement of paper PMC3724861
This is one part of the list.

tested on: T1, Caupolican (Caup) homeodomain DNA-binding domain; experiment: PBM E-score (8-mer, recovered from the published 9-mer minima) (E-score (dimensionless, -0.5 to 0.5)); Drosophila protein; higher = stronger relative binding preference, active = 0.31 or more
T1 sequence: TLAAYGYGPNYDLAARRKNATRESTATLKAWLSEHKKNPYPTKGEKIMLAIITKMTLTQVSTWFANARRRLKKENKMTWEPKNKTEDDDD
Description: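 Protein binding microarray (PBM): in vitro transcribed/translated Caupolican (Caup) homeodomain DNA-binding domain (residues 214-303) applied at 100 nM to a universal 8-mer PBM array (Agilent AMADID 015681). The 8-mer enrichment score (E-score, range -0.5 to 0.5) was computed, and each 9-mer score is the minimum E-score of its two constituent 8-mers. The E-score is the same for a 9-mer and its reverse complement; 0.31 is the stated binding threshold.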

Sequence | PBM E-score
CCCGGACG | inactive: -0.211
TAGGGTCA | inactive: -0.0162
ACATCGAC | inactive: 0.227
AATTTACT | ≥ 0.198
CAACCTTG | inactive: 0.0814
CGGTGGGC | inactive: -0.254
AGCAGTGC | inactive: -0.14
TAGGCGGA | inactive: -0.0109
TTGCGCAA | inactive: -0.00385
AAGTATGT | inactive: 0.245
CTTATTGC | inactive: -0.0488
CAGGCGCA | inactive: -0.181
AATAACAT | active: 0.348
AGAACGTG | inactive: -0.00371
CTCAGATA | inactive: 0.0695
AACTTCGA | inactive: -0.00917
AAATACGG | inactive: 0.0486
TATTCTCA | inactive: 0.0911
CAATGCCG | inactive: -0.166
GATTAGCC | inactive: -0.0031
ATACCAAT | ≥ 0.164
AATTTGCC | inactive: -0.0265
CTTCGACC | inactive: -0.168
CAGCACGG | inactive: -0.0332
ACGAGTAG | inactive: -0.00334

Sequence | PBM E-score
AACTTATA | inactive: 0.176
ATCAGCGG | inactive: -0.126
CTAAGAAC | inactive: -0.0324
TCTTCGAA | inactive: -0.0617
CACATGAA | inactive: 0.226
ATAAGAAC | inactive: 0.192
GAAGGCTC | inactive: -0.216
CTGACGCA | inactive: -0.241
CCACCGTA | inactive: 0.028
AGGCTCTC | inactive: -0.224
CCCTAGTC | inactive: -0.0495
CTGTGCAA | inactive: 0.131
CCGTGACC | inactive: -0.124
CACACATA | inactive: 0.164
CAGTACTC | inactive: 0.016
GCAGTGAA | inactive: 0.0398
AACGGTGT | inactive: 0.196
AACTAATG | inactive: 0.168
ACCATTAA | inactive: 0.182
ATTCCTTA | inactive: 0.0011
AACCCAGA | inactive: -0.075
TACGTCAA | inactive: 0.0652
CCTGAGCG | inactive: -0.215
ACCCTAAG | inactive: -0.0548
CATTCATA | inactive: 0.179

Sequence | PBM E-score
GCGACCAA | inactive: -0.0185
CGCGTAAA | inactive: -0.00534
AACGGCAA | inactive: 0.024
CTAGGGCA | inactive: -0.195
AGTCTCGC | inactive: -0.0637
AAAGCCTA | inactive: -0.0407
TCTCTTCA | inactive: -0.0622
TAGGTGAA | inactive: 0.0435
CTCCCCAG | inactive: -0.17
ATGTGTTA | active: ≥ 0.323
ATGCATCC | inactive: -0.0458
GAATCCTA | inactive: 0.0166
CTTGGTGC | inactive: -0.0256
CCCGGTAC | inactive: -0.064
CCTGCACA | inactive: -0.0308
ATGCATAA | inactive: 0.118
AGCCAAAA | inactive: -0.00265
CACAATAC | inactive: 0.11
ACGTCGTC | inactive: 0.0651
TGCGTCCA | inactive: -0.0458
AGTTCGTA | inactive: 0.0806
CTTGGTTC | inactive: 0.0216
CAAACATG | active: 0.391
ACCTTGGC | inactive: -0.108
CTATGGAA | inactive: 0.0634

Sequence | PBM E-score
CTGGAAAG | inactive: -0.131
ACATATCA | active: ≥ 0.321
CGAGTGGC | inactive: -0.181
CTTCCGCA | inactive: -0.0665
CGTTGTGA | inactive: 0.0411
TCCCTACA | inactive: 0.0901
AAGCCGGG | inactive: -0.179
AAAGGGGC | inactive: -0.178
GAATACCA | inactive: 0.136
GTAGGAAC | inactive: 0.0218
TTAACCAA | inactive: 0.14
GAAACGCA | inactive: -0.105
CTCAGGGC | inactive: -0.162
CTGCCTCC | inactive: -0.195
CCCAAGTC | inactive: -0.146
CACAGAAA | inactive: -0.00373
CGGCATAA | inactive: -0.0258
GACTATGA | inactive: 0.0441
CCTCTCAC | inactive: -0.093
ATCTTCAT | inactive: 0.002
CTTGTTTC | ≥ 0.302
GATGAACA | inactive: 0.196
AACGACAC | inactive: 0.291
ATCCGGAA | ≥ 0.0536
ATAGTCCC | inactive: -0.085

Sequence | PBM E-score
AACTGCGT | ≥ 0.002
ACATGGAT | active: 0.374
AAAATTAT | inactive: 0.163
CATCTTTA | inactive: 0.0974
ACCCTCTA | ≥ -0.0428
GCACTAGA | inactive: -0.106
AACGATAG | inactive: 0.0006
ATACGTTA | inactive: 0.115
ATCAGAGC | inactive: -0.0433
CTAGCCCC | inactive: -0.204
CAAGCGAC | inactive: 0.0812
ACTCATAG | inactive: 0.119
GCTTAGCA | inactive: -0.0447
CCTCGGAA | inactive: -0.071
CCTCGTGC | inactive: -0.153
CTCAATAA | inactive: -0.0584
TCAACACA | inactive: 0.271
AGTCCAAT | inactive: 0.0121
AAAGGGTC | inactive: -0.129
AGGGCACG | inactive: -0.108
GCTATCGA | inactive: -0.161
GCGCGGCA | inactive: -0.271
TACCGTAA | inactive: 0.084
CTCCTCAC | inactive: -0.136
GTAGTCCA | inactive: 0.0163

Sequence | PBM E-score
TGTCTAAA | inactive: 0.174
CGTCCAAG | inactive: -0.214
ATCTTATC | inactive: 0.0685
GGGCGCTA | inactive: -0.255
ATCCCAAG | inactive: -0.147
ACCCACAC | inactive: -0.144
CGCAGCAA | inactive: -0.107
AAATTGCT | inactive: 0.118
AATCGTTC | inactive: 0.121
ATCTGAAG | inactive: -0.0451
AGTTGATG | inactive: 0.149
CCTGGGTC | inactive: -0.22
AAGTACAG | inactive: 0.204
GGAAGGAC | inactive: -0.0901
GAGTTAAA | inactive: 0.00793
GACGCAGA | inactive: -0.166
GAGGGCGC | inactive: -0.287
GGAGAGCA | inactive: 0.0394
CATAGATG | inactive: 0.0521
CAATGCAC | inactive: 0.146
CAGTAATA | inactive: 0.167
CGAGCGGA | inactive: -0.115
AATATGCC | inactive: -0.0171
CTTGGTAC | inactive: 0.16
CTGATTAA | inactive: 0.162

Sequence | PBM E-score
GGGACTAC | inactive: -0.0163
CATTAATG | inactive: 0.209
AGAGGCTC | inactive: -0.211
GAGATTAA | inactive: 0.0203
ATTTGTTA | inactive: 0.219
ACGGGCAG | inactive: -0.0299
CCACAGTA | inactive: 0.0797
GTATTATA | inactive: 0.176
ATGAGTTC | inactive: 0.0362
ATAACCGG | inactive: -0.0147
AGACTATG | inactive: 0.0851
CTGCAGTC | inactive: -0.0794
TCCGACCA | inactive: 0.0363
TATCAGAA | inactive: 0.0677
ATAATTGG | inactive: 0.0174
ATATGAAA | inactive: 0.119
GAGAAAAC | inactive: -0.0577
AAATTACC | inactive: 0.0881
AGAGTAGC | inactive: -0.0886
CTCAGAGC | inactive: -0.141
GAAAACGA | inactive: 0.0287
TGGTAACA | inactive: 0.249
AAAAAAAT | inactive: 0.0513
GGATAGGA | inactive: -0.00668
ACTTGGAT | ≥ 0.147

Sequence | PBM E-score
TGAGTAAA | inactive: 0.0222
CGCGCCTA | inactive: -0.133
GAGCAGAA | inactive: -0.0539
ATCCGTAA | inactive: 0.0355
CAGGAATG | inactive: 0.11
CGTGGAGC | inactive: -0.198
TTAAATAA | inactive: 0.103
TCGCGCAA | ≥ 0.0408
ACAAGGCG | inactive: 0.154
GAAATGGA | inactive: -0.0329
ACTATGCT | ≥ 0.141
AGTTGTCG | inactive: 0.235
AACACATT | inactive: 0.264
CAACACTA | inactive: 0.177
AGGCGGCA | inactive: -0.223
CCTAAGAC | inactive: -0.0795
GGCAACCC | inactive: -0.192
CATGGTCG | inactive: 0.0771
AGATGTCG | inactive: 0.224
ACCCGCGA | inactive: -0.0509
AACTCGGG | inactive: -0.0964
ACACAGCA | inactive: 0.183
AGCGACTG | inactive: -0.0377
TAAATAGA | inactive: 0.0495
AAGACTGC | inactive: -0.0769

Sequence | PBM E-score
CATCGTCC | inactive: 0.0577
GCGGCCGA | inactive: -0.224
CAGGAGCA | inactive: -0.118
CGGTTTGA | inactive: -0.0374
ATTCTGAA | inactive: 0.0422
ATCACACG | ≥ 0.212
AAGTTTAG | inactive: -0.0117
CACCGCGC | inactive: -0.175
AGGGTTTG | inactive: 0.0185
CATGGTGC | inactive: -0.00637
GTCATTTA | inactive: 0.184
AGCCTCAG | inactive: -0.137
CCGAGCGG | inactive: -0.232
AGGAATCG | inactive: 0.0328
GGGCGGCA | inactive: -0.3
CTGAATCC | inactive: -0.0355
ACTTAGGG | inactive: -0.0599
AAAGATTG | inactive: 0.00127
CGGTTTGC | inactive: -0.0682
ATTACACA | active: ≥ 0.332
GAGTTCAA | ≥ 0.0481
CCACATGC | inactive: 0.0879
GGATGAGA | inactive: -0.0395
CGTGGTGC | inactive: -0.121
ATTGGTGA | ≥ 0.104
